{"source": "the BET-seq Pho4 binding data (Le et al. 2018)", "note": "The other results are listed elsewhere or left out. Values were computed here from the reads of four pooled replicates and scatter widely."}
{"biological_target": "T1, Pho4 (S. cerevisiae) (UniProt P07270)", "T1 sequence": "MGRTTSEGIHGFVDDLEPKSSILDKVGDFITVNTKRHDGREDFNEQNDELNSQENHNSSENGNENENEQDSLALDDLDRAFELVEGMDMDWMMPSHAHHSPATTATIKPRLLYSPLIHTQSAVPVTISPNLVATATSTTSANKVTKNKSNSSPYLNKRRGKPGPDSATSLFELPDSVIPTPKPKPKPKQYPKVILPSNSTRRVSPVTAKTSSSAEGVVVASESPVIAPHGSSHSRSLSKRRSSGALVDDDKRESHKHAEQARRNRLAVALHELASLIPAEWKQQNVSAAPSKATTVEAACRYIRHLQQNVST", "assay": "relative binding free energy (BET-seq); higher = weaker binding", "details": "reference: library average", "units": {"relative binding free energy": "kcal/mol"}}
{"sequence": "GTAGTCACGTGGCCGT", "relative binding free energy": 0.01}
{"sequence": "TAATCCACGTGTGGTA", "relative binding free energy": 0.13}
{"sequence": "GGCTACACGTGGATGG", "relative binding free energy": 0.11}
{"sequence": "TTTTGCACGTGGCAGT", "relative binding free energy": -0.01}
{"sequence": "GTTGACACGTGATGGT", "relative binding free energy": 0.24}
{"sequence": "AGTTTCACGTGGAAGT", "relative binding free energy": 0.2}
{"sequence": "TGGAACACGTGGGGTA", "relative binding free energy": -0.04}
{"sequence": "GTCGTCACGTGTTGGT", "relative binding free energy": 0.16}
{"sequence": "TAAATCACGTGGTGTT", "relative binding free energy": 0.13}
{"sequence": "AGGTGCACGTGGGTAA", "relative binding free energy": -0.18}
{"sequence": "TGAGTCACGTGATATA", "relative binding free energy": 0.08}
{"sequence": "GCGTGCACGTGGGATT", "relative binding free energy": -0.12}
{"sequence": "AGGATCACGTGGGCTA", "relative binding free energy": 0.09}
{"sequence": "AGTAACACGTGCTTGG", "relative binding free energy": -0.06}
{"sequence": "TTGGGCACGTGTGCCA", "relative binding free energy": -0.1}
{"sequence": "GGTAGCACGTGTAGGC", "relative binding free energy": -0.11}
{"sequence": "TCTTTCACGTGTCTGG", "relative binding free energy": 0.38}
{"sequence": "GGCTTCACGTGGTAGT", "relative binding free energy": 0.25}
{"sequence": "TGGATCACGTGCACTG", "relative binding free energy": 0.33}
{"sequence": "AGTCTCACGTGTTTTG", "relative binding free energy": 0.17}
{"sequence": "GTAGCCACGTGTCGGG", "relative binding free energy": 0.02}
{"sequence": "ATCGTCACGTGGTTGT", "relative binding free energy": 0.08}
{"sequence": "GGGGCCACGTGGTAGG", "relative binding free energy": -0.12}
{"sequence": "AAATTCACGTGTGTTC", "relative binding free energy": 0.2}
{"sequence": "AATTGCACGTGAGAAG", "relative binding free energy": 0.22}
{"sequence": "TATTGCACGTGAGGCT", "relative binding free energy": 0.1}
{"sequence": "AGTAGCACGTGTTTGA", "relative binding free energy": -0.12}
{"sequence": "GATTGCACGTGTACGT", "relative binding free energy": 0.07}
{"sequence": "TGTTTCACGTGATATG", "relative binding free energy": 0.2}
{"sequence": "GTATTCACGTGTGCTT", "relative binding free energy": 0.24}
{"sequence": "TGTTCCACGTGCTTTG", "relative binding free energy": -0.02}
{"sequence": "GGTGTCACGTGGGGTA", "relative binding free energy": -0.04}
{"sequence": "ATTGACACGTGGTGGT", "relative binding free energy": -0.03}
{"sequence": "CTAGGCACGTGGCGGC", "relative binding free energy": -0.14}
{"sequence": "TTGTACACGTGTCTAT", "relative binding free energy": 0.1}
{"sequence": "AGACTCACGTGGTTAG", "relative binding free energy": 0.19}
{"sequence": "TTTTACACGTGGTAGA", "relative binding free energy": 0.08}
{"sequence": "AAGATCACGTGATGCG", "relative binding free energy": 0.33}
{"sequence": "AAGGTCACGTGGGTTT", "relative binding free energy": 0.02}
{"sequence": "TGTTTCACGTGTTCGG", "relative binding free energy": 0.29}
{"sequence": "AGTTACACGTGAGGGA", "relative binding free energy": 0.11}
{"sequence": "AGGTGCACGTGCATCG", "relative binding free energy": 0.03}
{"sequence": "AGTTACACGTGGCTGT", "relative binding free energy": -0.08}
{"sequence": "AAGTGCACGTGTGTTC", "relative binding free energy": 0.07}
{"sequence": "AGGTGCACGTGGAAGT", "relative binding free energy": 0.01}
{"sequence": "TCCAGCACGTGTTGTG", "relative binding free energy": -0.11}
{"sequence": "TGCTGCACGTGGTGCT", "relative binding free energy": 0}
{"sequence": "GGACGCACGTGGTAGT", "relative binding free energy": -0.14}
{"sequence": "GGCGTCACGTGTTAGG", "relative binding free energy": 0.13}
{"sequence": "AAGGTCACGTGTCGTT", "relative binding free energy": 0.11}
{"sequence": "TGCGACACGTGAGTAT", "relative binding free energy": 0.24}
{"sequence": "AGGCGCACGTGTGGGC", "relative binding free energy": -0.11}
{"sequence": "AGTTTCACGTGGGTAC", "relative binding free energy": 0.13}
{"sequence": "GTGTGCACGTGTAGGC", "relative binding free energy": -0.02}
{"sequence": "AGATCCACGTGTGTTG", "relative binding free energy": 0.05}
{"sequence": "TGAGGCACGTGGCGCA", "relative binding free energy": -0.18}
{"sequence": "TTGATCACGTGAAATG", "relative binding free energy": 0.3}
{"sequence": "GTTAGCACGTGGCAGG", "relative binding free energy": -0.1}
{"sequence": "ATGGTCACGTGTGCGG", "relative binding free energy": 0.07}
{"sequence": "AGTAGCACGTGAGGAG", "relative binding free energy": 0.21}
{"sequence": "TCTATCACGTGGGGCG", "relative binding free energy": -0.01}
{"sequence": "TTAATCACGTGATGCG", "relative binding free energy": 0.08}
{"sequence": "GTAGTCACGTGTACGG", "relative binding free energy": 0.11}
{"sequence": "GCCGTCACGTGGGTAG", "relative binding free energy": -0.1}
{"sequence": "TGGCTCACGTGAAGGT", "relative binding free energy": 0.27}
{"sequence": "GGATTCACGTGAGCCG", "relative binding free energy": 0.49}
{"sequence": "ATGGACACGTGTCGTG", "relative binding free energy": -0.03}
{"sequence": "TTTGCCACGTGTTCAT", "relative binding free energy": 0.02}
{"sequence": "TTGTGCACGTGGGCAA", "relative binding free energy": -0.06}
{"sequence": "AGGAGCACGTGTAATT", "relative binding free energy": 0.12}
{"sequence": "GTGATCACGTGGTTCG", "relative binding free energy": 0.15}
{"sequence": "ATACTCACGTGGAGGG", "relative binding free energy": 0.02}
{"sequence": "AAAGGCACGTGTGCTG", "relative binding free energy": -0.02}
{"sequence": "GTCTGCACGTGACGGG", "relative binding free energy": 0.12}
{"sequence": "TTTGACACGTGTGTGG", "relative binding free energy": 0.04}
{"sequence": "AACTTCACGTGATGGT", "relative binding free energy": 0.33}
{"sequence": "GGGGGCACGTGTTAAT", "relative binding free energy": -0.02}
{"sequence": "TTTGTCACGTGTCAGC", "relative binding free energy": 0.08}
{"sequence": "GTTGGCACGTGCGAGT", "relative binding free energy": 0.03}
{"sequence": "AGTATCACGTGCTGTG", "relative binding free energy": 0.16}
{"sequence": "AGTATCACGTGCGGGT", "relative binding free energy": 0.17}
{"sequence": "CATTGCACGTGGCTTT", "relative binding free energy": 0.05}
{"sequence": "GATAACACGTGAGAGT", "relative binding free energy": 0.39}
{"sequence": "ACTGGCACGTGTGTAA", "relative binding free energy": -0.06}
{"sequence": "CATTGCACGTGTGGCG", "relative binding free energy": 0.1}
{"sequence": "AATATCACGTGTATGC", "relative binding free energy": 0.16}
{"sequence": "TTTTTCACGTGCGCGC", "relative binding free energy": 0.33}
{"sequence": "TGTGTCACGTGTCGGG", "relative binding free energy": 0.18}
{"sequence": "GGGGTCACGTGTCTTT", "relative binding free energy": 0.36}
{"sequence": "TGGCACACGTGTGTTA", "relative binding free energy": 0.02}
{"sequence": "GGGTTCACGTGGGAGC", "relative binding free energy": 0.3}
{"sequence": "GTTGTCACGTGTACTA", "relative binding free energy": 0.14}
{"sequence": "TATGCCACGTGTAGTT", "relative binding free energy": -0.01}
{"sequence": "TTTCGCACGTGAGCGT", "relative binding free energy": 0.17}
{"sequence": "ACGTGCACGTGGGAGA", "relative binding free energy": 0.01}
{"sequence": "GTATTCACGTGGGCGT", "relative binding free energy": 0.08}
{"sequence": "GTTTACACGTGAGTCA", "relative binding free energy": 0.32}
{"sequence": "TACAGCACGTGGGAGG", "relative binding free energy": -0.21}
{"sequence": "ATGTTCACGTGCTAAG", "relative binding free energy": 0.34}
{"sequence": "TGGCGCACGTGAGCGG", "relative binding free energy": 0}
{"sequence": "ATGTTCACGTGAATGG", "relative binding free energy": 0.4}
{"sequence": "TTTTACACGTGCATGT", "relative binding free energy": 0.11}
{"sequence": "AAGTGCACGTGAACGG", "relative binding free energy": 0.15}
{"sequence": "TAGGACACGTGATTAG", "relative binding free energy": -0.01}
{"sequence": "GAGTACACGTGAGAGG", "relative binding free energy": 0.31}
{"sequence": "TTATACACGTGGATTG", "relative binding free energy": 0.05}
{"sequence": "CTAAGCACGTGGTGGA", "relative binding free energy": -0.16}
{"sequence": "TGTGGCACGTGGGGAG", "relative binding free energy": -0.13}
{"sequence": "TAGTTCACGTGCAGGT", "relative binding free energy": 0.3}
{"sequence": "TGGGGCACGTGTGGGA", "relative binding free energy": 0}
{"sequence": "AGTGACACGTGTAGAG", "relative binding free energy": -0.03}
{"sequence": "GTTCGCACGTGGATGG", "relative binding free energy": -0.01}
{"sequence": "AGTTACACGTGTCTGC", "relative binding free energy": 0.35}
{"sequence": "TAAAACACGTGTGGAT", "relative binding free energy": 0.07}
{"sequence": "TATGACACGTGTATTT", "relative binding free energy": 0.15}
